Experimental data as given in paper PMC12136788.
This is one part of the list.

B1: chrX:71101288:71101389:+|CDS|ENSG00000184481|unk|total|mutant (ssRNA)
RNA: GGGAGUUCUACAGUCCGACGAUCGGAGGCCCUGCUCACCUCUGAUACGCCACCACCCCCUGCUGACGUCCUCAUGACCCAGGCCGAUCCCAUUCUGUCCCAGGCUCCGACUCUUCUGUUGCUGGGGGGGCUUCCUUCCUCCAGCAACAGAGGAUUGAGCAUCA
B2: chr3:45082276:45085637:-|three_prime_utr|ENSG00000163814|control|control|control (ssRNA)
RNA: GGGAGUUCUACAGUCCGACGAUCAUUGAAAAUGAUGAAUUCCAAUCUGGAUACAGUCAUGACAGCUCAUGUGCUCCUCAACUUAGGCUGUGCGGUUAGCCAGCCUGUAAUGAGAGGAGAGAGGCCUGAGUCACCUAGCAUAGGCAACAGAGGAUUGAGCAUCA
B3: chr5:136063637:136063821:+|3pUTR|ENSG00000120708|msi1|FALSE|unique (ssRNA)
RNA: GGGAGUUCUACAGUCCGACGAUCUGUCAAAUGUGUCUCACAUCUACACGUGGCUUGGAGGCUUUUAUGGGGCCCUGUCCAGGUAGAAAAGAAAUGGUAUGUAGAGCUUAGAUUUCCCUAUUGUGACAGAGCCAUGGUGUGUUUCAACAGAGGAUUGAGCAUCA
B4: chr13:95044265:95044438:-|CDS|ENSG00000125257|control|control|control (ssRNA)
RNA: GGGAGUUCUACAGUCCGACGAUCACCAUUGAAGAUCUUCCUGGUAAAAUGGAUACUGAAUUAGCAGAAUCAGGAUCCAAUUUUAGUGUUGGACAAAGACAACUGGUGUGCCUUGCCAGGGCAAUUCUCAGGAAAAAUCAGAUACAACAGAGGAUUGAGCAUCA
B5: chr10:94132299:94132400:+|CDS|ENSG00000138193|unk|total|mutant (ssRNA)
RNA: GGGAGUUCUACAGUCCGACGAUCUGAGUAUCGCGCCACCCUCCAAAGGACUUCAAUAUCGCAGUACAUCACCGGUUCUCUCCCCGAAGCAACCACGUCUUUGGGAGCAAGAAGUGGCCUUCUCAGUACUUUUGGAGGAUCCACCAACAGAGGAUUGAGCAUCA
B6: chr4:75597091:75597192:-|CDS|ENSG00000138769|unk|total|mutant (ssRNA)
RNA: GGGAGUUCUACAGUCCGACGAUCUAUAAACUAUUUAAAAUAAAAGGCUCAAAAAUUGAUGGAGAAAAAGCUGAAAAAGGCAACCGAGCUUCAAAUGCCAGCUGUCUCCAUGACAGCCGGACAAGCCACAACAAAACCGUGCCUCAACAGAGGAUUGAGCAUCA
B7: chr2:236324146:236324783:-|three_prime_utr|ENSG00000132321|control|control|control (ssRNA)
RNA: GGGAGUUCUACAGUCCGACGAUCACUCGCCAAAGAAAAGAUUCACCAUUGCCCGCCUGAAGAAGCCCUCAGGGGAAGGAACUUAGCAGUGUGCAGGUGAGCUGAUGCCGCAAACCCGCUAACCACUGCAUGUGCUGUUAUGCCCAACAGAGGAUUGAGCAUCA
B8: ENSG00000107863:be:win_5301|CDS|ENSG00000107863|bound_else_gene|NA|bound_elsewhere_windowed (ssRNA)
RNA: GGGAGUUCUACAGUCCGACGAUCUCGGUUAAAACUGAGACCCAGAGCCCCUGCGGAUGACAUGUUUGGAGUAGGGAAUCACAAAGUGAAUGCCGAGACUGCUAAAAGGAAAAGCAUCCGGCGCAGACAUACACUAGGAGGGCACAACAGAGGAUUGAGCAUCA
B9: chr2:224470697:224470798:-|3pUTR|ENSG00000036257|msi1|total|mutant (ssRNA)
RNA: GGGAGUUCUACAGUCCGACGAUCUGUGACAAACUAAAGUUAAUACAUGAAGCAUUGCAAUAUGGAAUUUUGCACAUUUUUGUCCGCUUUACAUUAUUUGCUGAUACCAACUUUUGGCCGGAAGGAAAACAGGGAAGGUGAUUGCAACAGAGGAUUGAGCAUCA
B10: chr12:108645191:108645284:-|3pUTR|ENSG00000110880|msi1_unk|FALSE|overlapping (ssRNA)
RNA: GGGAGUUCUACAGUCCGACGAUCUCUUUUUUUUUUUUUUUUUUUAAGCCAUGACAUCCCAGAAGAGGACAGUGAAUUACUCCUAGGUCGGCUCUUAUAGAGUGGCCAUAGUGUUCUGUCAAAACACUUGCUUCCAUUUUCAGACAACAGAGGAUUGAGCAUCA
B11: chrX:11121696:11121802:+|CDS|ENSG00000004961|unk|total|mutant (ssRNA)
RNA: GGGAGUUCUACAGUCCGACGAUCUGAUGGUGGUGAAGUCAACAAGGACUACCAGUUCACCAUCCUGGACGUCCGUCCUGCCUCCGAUUCACUUUCGGCAGUAUGGGACAGAAUGAAAGUCGCUUGGUGGCGUUGGACCUCGUACAACAGAGGAUUGAGCAUCA
B12: chr20:4701031:4701132:+|3pUTR|ENSG00000171867|msi1|total|mutant (ssRNA)
RNA: GGGAGUUCUACAGUCCGACGAUCCACCGUUUCUGUAAUUGGCUUUUGAAUCAAAGAACCGGGAGACAAUCUAAAAAAUAUCUCCGGUUGGAGAUGACAGAAAUAUGAUUGAUUUGAAGUGGAAAAAGAAAUUCUGUUAAUGUUCAACAGAGGAUUGAGCAUCA
B13: chr8:38210141:38210254:+|CDS|ENSG00000156735|unk|total|mutant (ssRNA)
RNA: GGGAGUUCUACAGUCCGACGAUCGCUGAGCCUCAGCUGUAUGGUAAUGCCACCAGUGACCAUCCCAACAAUCAAGAUCAAAGCCGCAGUCUUCCUGAAGAAUGUGUACCUUCAGAUGAAAGUACUCCUCCGAGUAUUAAAAAACAACAGAGGAUUGAGCAUCA
B14: chr2:219567275:219567376:-|CDS|ENSG00000124006|msi1|total|mutant (ssRNA)
RNA: GGGAGUUCUACAGUCCGACGAUCUGUGUGCCCUCCGAGGGUGACUACCGCUUCCGCAUCUGCACAGUCAGCGGACAUGGCCGCCGUCCCCACGUGGUGUUCCACGGUUCUGCUCACCUUGGUGAGUUGGUCCUGCCAGACCCACAACAGAGGAUUGAGCAUCA
B15: ENSG00000198589:be:win_8001|CDS|ENSG00000198589|bound_else_gene|NA|bound_elsewhere_windowed (ssRNA)
RNA: GGGAGUUCUACAGUCCGACGAUCUGGAGAUAACCCAGGCAGUGAGACUGCUGCUCCUCGGGCCAUUUUGACCGGCCAUGACUAUGAGGUCACAUGUGCUGCGGUGUGUGCGGAGCUAGGCCUGGUGUUGAGUGGUUCACAAGACAACAGAGGAUUGAGCAUCA
B16: chr1:151048051:151048152:+|CDS|ENSG00000143443|unk|total|mutant (ssRNA)
RNA: GGGAGUUCUACAGUCCGACGAUCGACCGCCUGGCUGGACCAGCGGCUGCCGAGCUCUUGGCCGCCACGGUGUCCACCGGCUUCCGCCGGUCGUCCGCCAUUAACGAGGAGGAUGGGUCUUCAGAAGAGGGGGUUGUGAUUAAUCAACAGAGGAUUGAGCAUCA
B17: chr8:22006364:22006465:+|3pUTR|ENSG00000130227|msi1|total|mutant (ssRNA)
RNA: GGGAGUUCUACAGUCCGACGAUCUGUUGCUGCCCGUUGUACACAUCUCCCGUUCAGCUCUUGCCCACGGGACACUCAUCAAUCCGGUUUUAUUUUUAUUUCUUUCCUCUACCCCCAGAAACAAGCCUGUUAAUUUUUUUUCCUCAACAGAGGAUUGAGCAUCA
B18: chr7:100033925:100034026:+|CDS|ENSG00000106261|msi1|total|mutant (ssRNA)
RNA: GGGAGUUCUACAGUCCGACGAUCCAGAGCUCGGACCUCACCAAGCAUCAGAGAAUUCACACGGGGGAGAAACCCUAUGAAUGCCGUGAAUGUGGAAAAGCUUUCAACCGAAACUCAUACCUGAUUUUGCAUCGGAGAAUUCACCAACAGAGGAUUGAGCAUCA
B19: chr6:108211900:108211976:-|3pUTR|ENSG00000112335|msi1_unk|total|mutant (ssRNA)
RNA: GGGAGUUCUACAGUCCGACGAUCGUUGACAAGAAGUUAAUUUGCUUCCGUAAAAAUCCCUCAUUCCAGCCUUUCUAUAUAAACCGCUCUUUCUUGCUGUUUUAAUGUGGUGCACACUACCGCCUCACAAACCUGUUAUUCCAGCAACAGAGGAUUGAGCAUCA
B20: chr16:67638976:67639077:+|3pUTR|ENSG00000102974|unk|FALSE|unique (ssRNA)
RNA: GGGAGUUCUACAGUCCGACGAUCAAACACUUUUUUCUUCUGUGUAUUGCUUUUAAGAGAGCCAUCAGUUAGCUAUCAGACUCUAGGUUGAUGCAUUUUGUACUUAGCUGUACUGUGUGAUAUUUUUCAUUAUUUUAGGACGCCCAACAGAGGAUUGAGCAUCA
B21: chr1:61455842:61455953:+|3pUTR|ENSG00000162599|unk|total|mutant (ssRNA)
RNA: GGGAGUUCUACAGUCCGACGAUCUUUUCUGUAACAUAUUGGAAAAAGAAAAUGCAGUUAUAUUCCUUUUUUAUUUGUUCCUUCCGUUUGUUUUGGUUCAGCAGUCAGCAGUUAAGUAUAUAACAUGGCCCGCAAGGACAAUGACAACAGAGGAUUGAGCAUCA
B22: chr12:42456824:42456925:-|3pUTR|ENSG00000139174|unk|total|mutant (ssRNA)
RNA: GGGAGUUCUACAGUCCGACGAUCAUGAGCCACUGCGUCUGGCAAUAAUGUAACUUUGAAGCUUAAAAAUUAAUCCCAGUUUGCCGCAAUAACAGAAGACUAUCUACAACGGAAGAAAGAAGCAACUGCCUUACAGUUCUGUAACAACAGAGGAUUGAGCAUCA

target: MSI1 full-length (mouse, UniProt Q61474 1-362); test: nsRBNS (natural sequence RNA bind-n-seq); RBNS binding buffer (assumed for nsRBNS): 25 mM Tris pH 7.5, 150 mM KCl, 3 mM MgCl2, 0.01% Triton X-100, 500 ug/ml BSA, 20 U/ml SUPERase-In, 4 C; UNK is unkempt and MSI1 is Musashi-1; names of the RNAs are library labels; protein concentration not given here; high values mean tight binding
Chain of UniProt Q61474 (Q61474 whole entry): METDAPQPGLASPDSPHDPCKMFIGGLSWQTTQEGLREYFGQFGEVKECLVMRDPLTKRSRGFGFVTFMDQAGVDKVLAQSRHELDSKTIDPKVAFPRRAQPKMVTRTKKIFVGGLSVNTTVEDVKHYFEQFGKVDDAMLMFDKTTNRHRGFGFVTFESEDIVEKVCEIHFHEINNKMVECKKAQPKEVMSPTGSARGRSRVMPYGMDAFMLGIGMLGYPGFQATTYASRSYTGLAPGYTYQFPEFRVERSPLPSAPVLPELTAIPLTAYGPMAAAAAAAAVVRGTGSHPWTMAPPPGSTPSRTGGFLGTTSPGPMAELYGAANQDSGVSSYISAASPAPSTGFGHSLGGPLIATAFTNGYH

Binder	binding signal
B1	0.433 enrichment R
B2	0.366 enrichment R
B3	2.67 enrichment R
B4	0.603 enrichment R
B5	0.404 enrichment R
B6	0.978 enrichment R
B7	0.38 enrichment R
B8	0.426 enrichment R
B9	0.351 enrichment R
B10	2.26 enrichment R
B11	0.333 enrichment R
B12	0.277 enrichment R
B13	0.38 enrichment R
B14	0.357 enrichment R
B15	0.421 enrichment R
B16	0.473 enrichment R
B17	2.44 enrichment R
B18	0.384 enrichment R
B19	0.558 enrichment R
B20	5.17 enrichment R
B21	0.532 enrichment R
B22	0.477 enrichment R
